Assay results published in ChEMBL document CHEMBL4888484, “Replenishing the malaria drug discovery pipeline: Screening and hit evaluation of the MMV Hit Generation Library 1 (HGL1) against asexual blood stage Plasmodium falciparum ,using a nano luciferase reporter read-out” (2022).
About 540 (0.36%) of roughly 150,000 compounds showed an effect of 50% or more. This is one part of the list.

tested on: Plasmodium falciparum; assay: Primary screen in NF54 nanoGlo assay, in single point, at 2uM, 72h; a lower Z score goes with more inhibition; assay type: functional, Erythrocyte; conditions: timepoint 72 hour

Compound	% Inhibition [%]	Z score
CCc1ccc(CN2CCC3(CCC(=O)N(CCc4c[nH]cn4)C3)CC2)nc1	-17	1.92
O=C(Cc1ccc(Cl)cc1F)NCCCc1ccco1	-11	1.53
Cc1csc(CCNC(=O)COc2cccc(C)c2C)n1	-13	1.7
CC(=O)N1CC(C(=O)N[C@H]2CCCc3nn(C)cc32)C1	-2	0.23
CC(C)OCC(O)CN(CC(=O)N1CCc2sccc2C1COc1ccc(F)cc1)C(C)C (stereo unspecified)	-12	1.16
Cc1cc(C[C@H](C)n2cnc3ccncc3c2=O)[nH]n1	-10	1.52
CN(C)C(=NCc1ccn(C2CCCC2)n1)N(C)C	-9	1.4
CCCC(NC(=O)C(C)c1ccc(Cl)s1)c1nnn[nH]1 (stereo unspecified)	-3	0.46
O=C(c1ccc(C[C@@H]2COc3ccccc3C2)nc1)N1CCCCC1	-9	1.26
CCCn1cc(C(=O)N2CCC3(CC2)C(=O)N(C)c2ccccc23)c(C)n1	-3	0.53
O=C(NCc1ccccc1)N1CCO[C@H](c2cc(Cl)cc(Cl)c2)C1	-19	2.46
Cn1cc(S(=O)(=O)NCC(=O)N2CCCC2)c(C2CCCC2)n1	-14	1.44
COc1cc(C(=O)NC2CCCCCCC2)ccc1OC1CCN(C(C)=O)CC1	14	-1.65
Cc1ccc2[nH]c3c(c2c1)C[C@@H](NS(=O)(=O)Cc1cccc(F)c1)CC3	-6	0.64
C[C@@]1(CCc2ccc3c(c2)OCO3)NC(=O)NC1=O	-7	1.43
CCCN(Cc1nc(COc2cc(C)cc(C)c2)no1)C1CC1	5	-0.62
O=C(Nc1cc(O)cc(F)c1)C1=CCCCO1	-13	1.59
CCC(CC)C(=O)N(CCO)C1CCC1	-3	0.4
COc1ccc(C[C@@H]2COc3ccccc3C2)cc1C(N)=O	-5	0.96
CN(C)C(=O)[C@@H]1CC[C@](C)(C(=O)NCCCn2cncn2)C1(C)C	-18	1.83
COc1ccc(C(=O)N[C@@H]2CCC[C@@H]2C(=O)NCc2ccc3c(c2)OCO3)cn1	6	-0.8
O=C(O)[C@]1(C(=O)Nc2n[nH]c3c(Cl)cccc23)CC=CCC1	-5	0.68
Cc1ccc(-n2ncc3c2CC(C)(C)C[C@@H]3NC2CCOCC2)cc1	-3	0.31
N#Cc1cnc2ccc(F)cc2c1N1CCC(C(=O)Nc2cc(F)cc(F)c2)CC1	9	-1.02
Cc1noc(C)c1CN1CC2(CCN(C(=O)c3ccccn3)CC2)CC1=O	-8	1.5
COC[C@@H]1[C@H](C(=O)N2CCN(C3CCCCC3)CC2)CCCN1Cc1ccccc1	-15	1.71
O=C(CCc1nc(-c2ccc(S(=O)(=O)N3CCCCC3)cc2)no1)N1CCCC1	0	-0.04

Compound	% Inhibition [%]	Z score
O=C(NCc1nnc[nH]1)c1ccccc1-c1ccccc1	9	-1.09
Cc1nc(-c2cccc(C(=O)N[C@@H](C)c3nncn3C)c2)nc2c1CCCC2	-10	2.03
O=C(Nc1ccccn1)N[C@H](c1ccccc1)C1CCC1	-4	0.58
COC[C@H]1C(=O)N(c2cccnc2)C(=O)N1C1CC1	-3	0.35
Cn1cc(-c2ccnc(N3CCN([C@H]4CCCC[C@@H]4O)CC3)n2)cn1	-3	0.46
O=C(O)c1occc1CN1CCC(Cc2cccc(F)c2F)CC1	-14	2.41
CCNc1ncc(S(=O)(=O)NCCc2cnn(C)c2)cc1Cl	0	-0.03
COc1ccc(CN(C)Cc2noc3c2COCC3)cn1	6	-0.74
Cc1csc(NC(=O)[C@H](C)N2CCCC3(CCOCC3)C2)n1	3	-0.59
Cc1cc(Cn2ccc(-c3cccc(-c4ncccc4Cl)c3)n2)no1	-6	0.95
O=C(c1ccco1)N1CCN(C(=O)[C@H]2CCCN(c3cccc4c3C(=O)N(C3CCCCCCC3)C4=O)C2)CC1	-9	1.2
Cc1cc(NC(=O)CNc2cccc3c2OC(C)(C)C[C@@H]3O)n(C)n1	-4	0.6
CCn1cc(Nc2ncnc3scc(-c4ccc(Cl)cc4)c23)cn1	-13	2.42
Cc1ccccc1[C@H]1CCN(CCNC(=O)c2cn(C3CCCCCC3)nn2)C1	0	-0.07
C=C(C)CN(CC)c1nnnn1[C@@H]1COC2(CCC2)C1	0	-0.02
COc1ccccc1-n1nc(CC(N)=O)nc1C1(Cn2ccnc2)CC1	-13	1.63
COc1ccccc1NC(=O)Nc1ccccc1-c1cc2ccccc2[nH]1	0	0.03
O=C(Nc1ccc(Cl)cc1F)c1ccc(N2CCCCC2)nn1	-10	1.73
O=C(c1csc(-c2cccs2)n1)N1CCOC2CCCC21 (stereo unspecified)	-2	0.39
COc1ccc(OC)c2c1cc1n2C[C@@](C)(C(=O)NC2CCCC2)N(Cc2ccccn2)C1=O	4	-0.6
CC(=O)N1CC(c2ccccc2)OC(c2ccc(F)cc2)C1 (stereo unspecified)	-12	1.13
O=C(Cc1ccsc1)N1CC(Nc2ccncn2)C1	13	-1.48
O=C(N[C@H]1CC[C@@H]2CCC[C@@H]21)c1c[nH]c(=O)c(Cl)c1	42	-7.22
COc1ccc(CN(CC(C)C)S(=O)(=O)c2cccc3cccnc23)cc1OS(=O)(=O)c1cccc(C(F)(F)F)c1	-3	0.53
O=C1C[C@H](c2ccc(F)c(F)c2)c2c(n(C3CCCCCCC3)[nH]c2=O)N1	-8	0.96
CCc1nnc2c(=O)n(CC(=O)Nc3ccc(OC)c(Cl)c3)c3ccccc3n12	9	-1.02
